{"source": "the supplement of paper PMC8728848", "binders": {"B1": {"name": "Als3-2 (Candida albicans) (protein)", "chain": "KTITGVFNSFNSLTWSNAATYNYKGPGTPTWNAVLGWSLDGTSASPGDTFTLNMPCVFKFTTSQTSVDLTAHGVKYATCQFQAGEEFMTFSTLTCTVSNTLTPSIKALGTVTLPLAFNVGGTGSSVDLEDSKCFTAGTNTVTFNDGGKKISINVDFERSNVDPKGYLTD"}}, "assay_in_all_cases": "glycan array binding signal (z-score within array); higher = stronger binding", "conditions_in_all_cases": "glycan notation: IUPAC condensed, linker removed", "key": {"[1]": {"biological_target": "GalNAc(b1-4)GlcNAc(b1-2)Man", "method_in_brief": "(§1)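 Negative Z-scores can be read as non-binding. The Z-score is calculated within each array and then averaged across arrays of one protein sequence at different concentrations or buffers and across linkers. Arrays, 3228 in all, were curated from the Consortium for Functional Glycomics database and kept only where the protein sequence was available.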"}, "[2]": {"biological_target": "GalNAc(b1-4)GlcNAc(b1-2)Man(a1-3)[GalNAc(b1-4)GlcNAc(b1-2)Man(a1-6)]Man(b1-4)GlcNAc(b1-4)GlcNAc", "method_in_brief": "as §1"}, "[3]": {"biological_target": "GalNAc(b1-4)GlcNAc(b1-3)GalNAc(b1-4)GlcNAc", "method_in_brief": "as §1"}, "[4]": {"biological_target": "GalNAc(b1-4)GlcNAc6S", "method_in_brief": "as §1"}, "[5]": {"biological_target": "GalNAc(b1-6)GalNAc", "method_in_brief": "as §1"}, "[6]": {"biological_target": "GalNAc3S(b1-4)GlcNAc", "method_in_brief": "as §1"}, "[7]": {"biological_target": "GalNAc3S(b1-4)GlcNAc3S", "method_in_brief": "as §1"}, "[8]": {"biological_target": "GalNAc3S(b1-4)[Fuc(a1-3)]GlcNAc", "method_in_brief": "as §1"}, "[9]": {"biological_target": "GalNAc4S6S(b1-4)GlcNAc", "method_in_brief": "as §1"}, "[10]": {"biological_target": "GalNAc6S(b1-4)GlcNAc", "method_in_brief": "as §1"}, "[11]": {"biological_target": "Glc(a1-4)Glc", "method_in_brief": "as §1"}, "[12]": {"biological_target": "Glc(a1-4)Glc(a1-4)Glc(a1-4)Glc", "method_in_brief": "as §1"}, "[13]": {"biological_target": "Glc(a1-6)Glc(a1-6)Glc", "method_in_brief": "as §1"}, "[14]": {"biological_target": "Glc(a1-6)Glc(a1-6)Glc(a1-6)Glc", "method_in_brief": "as §1"}, "[15]": {"biological_target": "Glc(b1-4)Glc", "method_in_brief": "as §1"}, "[16]": {"biological_target": "Glc(b1-6)Glc", "method_in_brief": "as §1"}, "[17]": {"biological_target": "GlcA(b1-3)Gal", "method_in_brief": "as §1"}, "[18]": {"biological_target": "GlcA(b1-3)GlcNAc", "method_in_brief": "as §1"}, "[19]": {"biological_target": "GlcA(b1-6)Gal", "method_in_brief": "as §1"}, "[20]": {"biological_target": "GlcA3S(b1-3)Gal(b1-4)GlcNAc(b1-2)Man", "method_in_brief": "as §1"}, "[21]": {"biological_target": "GlcA3S(b1-3)Gal(b1-4)GlcNAc(b1-3)Gal(b1-4)Glc", "method_in_brief": "as §1"}, "[22]": {"biological_target": "GlcNAc(a1-3)Gal(b1-4)GlcNAc", "method_in_brief": "as §1"}, "[23]": {"biological_target": "GlcNAc(a1-4)Gal(b1-3)GlcNAc", "method_in_brief": "as §1"}, "[24]": {"biological_target": "GlcNAc(a1-4)Gal(b1-4)GalNAc", "method_in_brief": "as §1"}, "[25]": {"biological_target": "GlcNAc(a1-4)Gal(b1-4)GlcNAc", "method_in_brief": "as §1"}, "[26]": {"biological_target": "GlcNAc(a1-4)Gal(b1-4)GlcNAc(b1-3)Gal(b1-4)Glc", "method_in_brief": "as §1"}, "[27]": {"biological_target": "GlcNAc(a1-4)Gal(b1-4)GlcNAc(b1-3)Gal(b1-4)GlcNAc", "method_in_brief": "as §1"}, "[28]": {"biological_target": "GlcNAc(a1-4)Gal(b1-4)GlcNAc(b1-3)Gal(b1-4)GlcNAc(b1-3)Gal(b1-4)GlcNAc", "method_in_brief": "as §1"}, "[29]": {"biological_target": "GlcNAc(a1-4)Gal(b1-4)GlcNAc(b1-3)Gal(b1-4)[Fuc(a1-3)]GlcNAc(b1-3)Gal(b1-4)[Fuc(a1-3)]GlcNAc", "method_in_brief": "as §1"}, "[30]": {"biological_target": "GlcNAc(a1-6)Gal(b1-4)GlcNAc", "method_in_brief": "as §1"}, "[31]": {"biological_target": "GlcNAc(b1-2)Gal(b1-3)GalNAc", "method_in_brief": "as §1"}, "[32]": {"biological_target": "GlcNAc(b1-2)Man(a1-3)[GlcNAc(b1-2)Man(a1-6)]Man(b1-4)GlcNAc(b1-4)GlcNAc", "method_in_brief": "as §1"}, "[33]": {"biological_target": "GlcNAc(b1-2)Man(a1-3)[GlcNAc(b1-2)Man(a1-6)]Man(b1-4)GlcNAc(b1-4)[Fuc(a1-6)]GlcNAc", "method_in_brief": "as §1"}, "[34]": {"biological_target": "GlcNAc(b1-2)Man(a1-3)[GlcNAc(b1-4)][GlcNAc(b1-2)Man(a1-6)]Man(b1-4)GlcNAc(b1-4)GlcNAc", "method_in_brief": "as §1"}, "[35]": {"biological_target": "GlcNAc(b1-2)Man(a1-3)[GlcNAc(b1-4)][GlcNAc(b1-2)Man(a1-6)]Man(b1-4)GlcNAc(b1-4)[Fuc(a1-6)]GlcNAc", "method_in_brief": "as §1"}, "[36]": {"biological_target": "GlcNAc(b1-2)[GlcNAc(b1-4)]Man(a1-3)[GlcNAc(b1-2)Man(a1-6)]Man(b1-4)GlcNAc(b1-4)GlcNAc", "method_in_brief": "as §1"}, "[37]": {"biological_target": "GlcNAc(b1-2)[GlcNAc(b1-4)]Man(a1-3)[GlcNAc(b1-4)][GlcNAc(b1-2)Man(a1-6)]Man(b1-4)GlcNAc(b1-4)GlcNAc", "method_in_brief": "as §1"}, "[38]": {"biological_target": "GlcNAc(b1-2)[GlcNAc(b1-4)]Man(a1-3)[GlcNAc(b1-4)][GlcNAc(b1-2)[GlcNAc(b1-6)]Man(a1-6)]Man(b1-4)GlcNAc(b1-4)GlcNAc", "method_in_brief": "as §1"}, "[39]": {"biological_target": "GlcNAc(b1-2)[GlcNAc(b1-4)]Man(a1-3)[GlcNAc(b1-4)][GlcNAc(b1-2)[GlcNAc(b1-6)]Man(a1-6)]Man(b1-4)GlcNAc(b1-4)[Fuc(a1-6)]GlcNAc", "method_in_brief": "as §1"}, "[40]": {"biological_target": "GlcNAc(b1-2)[GlcNAc(b1-6)]Man(a1-6)[GlcNAc(b1-2)Man(a1-3)]Man(b1-4)GlcNAc(b1-4)GlcNAc", "method_in_brief": "as §1"}, "[41]": {"biological_target": "GlcNAc(b1-2)[GlcNAc(b1-6)]Man(a1-6)[GlcNAc(b1-2)Man(a1-3)]Man(b1-4)GlcNAc(b1-4)[Fuc(a1-6)]GlcNAc", "method_in_brief": "as §1"}, "[42]": {"biological_target": "GlcNAc(b1-2)[GlcNAc(b1-6)]Man(a1-6)[GlcNAc(b1-4)][GlcNAc(b1-2)Man(a1-3)]Man(b1-4)GlcNAc(b1-4)GlcNAc", "method_in_brief": "as §1"}, "[43]": {"biological_target": "GlcNAc(b1-3)Fuc", "method_in_brief": "as §1"}, "[44]": {"biological_target": "GlcNAc(b1-3)Gal", "method_in_brief": "as §1"}, "[45]": {"biological_target": "GlcNAc(b1-3)Gal(b1-3)GalNAc", "method_in_brief": "as §1"}}, "note": "This is one part of the list.", "data": [{"binder": "B1", "values": [{"measurement": "glycan array binding signal (z-score)", "setting": "[1]", "result": 0.112}, {"measurement": "glycan array binding signal (z-score)", "setting": "[2]", "result": -0.421}, {"measurement": "glycan array binding signal (z-score)", "setting": "[3]", "result": 0.905}, {"measurement": "glycan array binding signal (z-score)", "setting": "[4]", "result": 0.73}, {"measurement": "glycan array binding signal (z-score)", "setting": "[5]", "result": -0.082}, {"measurement": "glycan array binding signal (z-score)", "setting": "[6]", "result": -0.156}, {"measurement": "glycan array binding signal (z-score)", "setting": "[7]", "result": -0.584}, {"measurement": "glycan array binding signal (z-score)", "setting": "[8]", "result": -0.351}, {"measurement": "glycan array binding signal (z-score)", "setting": "[9]", "result": -0.416}, {"measurement": "glycan array binding signal (z-score)", "setting": "[10]", "result": -0.595}, {"measurement": "glycan array binding signal (z-score)", "setting": "[11]", "result": -0.488}, {"measurement": "glycan array binding signal (z-score)", "setting": "[12]", "result": -0.222}, {"measurement": "glycan array binding signal (z-score)", "setting": "[13]", "result": -0.642}, {"measurement": "glycan array binding signal (z-score)", "setting": "[14]", "result": 0.567}, {"measurement": "glycan array binding signal (z-score)", "setting": "[15]", "result": -0.551}, {"measurement": "glycan array binding signal (z-score)", "setting": "[16]", "result": -0.611}, {"measurement": "glycan array binding signal (z-score)", "setting": "[17]", "result": -0.578}, {"measurement": "glycan array binding signal (z-score)", "setting": "[18]", "result": -0.317}, {"measurement": "glycan array binding signal (z-score)", "setting": "[19]", "result": -0.466}, {"measurement": "glycan array binding signal (z-score)", "setting": "[20]", "result": -0.554}, {"measurement": "glycan array binding signal (z-score)", "setting": "[21]", "result": 1.02}, {"measurement": "glycan array binding signal (z-score)", "setting": "[22]", "result": -0.564}, {"measurement": "glycan array binding signal (z-score)", "setting": "[23]", "result": -0.692}, {"measurement": "glycan array binding signal (z-score)", "setting": "[24]", "result": -0.091}, {"measurement": "glycan array binding signal (z-score)", "setting": "[25]", "result": -0.712}, {"measurement": "glycan array binding signal (z-score)", "setting": "[26]", "result": -0.724}, {"measurement": "glycan array binding signal (z-score)", "setting": "[27]", "result": -0.427}, {"measurement": "glycan array binding signal (z-score)", "setting": "[28]", "result": -0.62}, {"measurement": "glycan array binding signal (z-score)", "setting": "[29]", "result": -0.426}, {"measurement": "glycan array binding signal (z-score)", "setting": "[30]", "result": 0.311}, {"measurement": "glycan array binding signal (z-score)", "setting": "[31]", "result": -0.581}, {"measurement": "glycan array binding signal (z-score)", "setting": "[32]", "result": -0.617}, {"measurement": "glycan array binding signal (z-score)", "setting": "[33]", "result": -0.058}, {"measurement": "glycan array binding signal (z-score)", "setting": "[34]", "result": -0.374}, {"measurement": "glycan array binding signal (z-score)", "setting": "[35]", "result": -0.63}, {"measurement": "glycan array binding signal (z-score)", "setting": "[36]", "result": -0.603}, {"measurement": "glycan array binding signal (z-score)", "setting": "[37]", "result": -0.609}, {"measurement": "glycan array binding signal (z-score)", "setting": "[38]", "result": -0.57}, {"measurement": "glycan array binding signal (z-score)", "setting": "[39]", "result": -0.664}, {"measurement": "glycan array binding signal (z-score)", "setting": "[40]", "result": -0.527}, {"measurement": "glycan array binding signal (z-score)", "setting": "[41]", "result": -0.54}, {"measurement": "glycan array binding signal (z-score)", "setting": "[42]", "result": -0.7}, {"measurement": "glycan array binding signal (z-score)", "setting": "[43]", "result": 1.12}, {"measurement": "glycan array binding signal (z-score)", "setting": "[44]", "result": -0.723}, {"measurement": "glycan array binding signal (z-score)", "setting": "[45]", "result": -0.354}]}]}
